Data as given in publication PMC12136788.
Some of the results follow.

T1: UNK ZnF1-3 (human, UniProt Q9C0B0 31-174)
T1 sequence: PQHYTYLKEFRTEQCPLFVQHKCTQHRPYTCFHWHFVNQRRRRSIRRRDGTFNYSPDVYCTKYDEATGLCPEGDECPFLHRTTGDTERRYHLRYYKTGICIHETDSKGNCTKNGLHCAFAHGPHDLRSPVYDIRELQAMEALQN

B1: chr9:50470998:50470999:-_ENSMUSG00000032064_ENSMUST00000117646|mus_hu|FALSE|FALSE (ssRNA)
RNA: GGGAGUUCUACAGUCCGACGAUCCAGUUAAAACUGGUUAUCACUUUGAUAAUCAGAAGCCUCUGGUGUAACAUAGUCUUCAUGAAAACAUAUUGUAAAACAGGGAGAAUACACAGUAAUAAUCUCUUUGAAAGCAAUGGCUGUCAACAGAGGAUUGAGCAUCA
B2: chr7:65705844:65705845:+_ENSG00000169902_ENST00000304842|hu_mus|hu_hu_hu_mus_False|1_88 (ssRNA)
RNA: GGGAGUUCUACAGUCCGACGAUCAAACGGAUCUUUGUUACAUAAAUAAGGGGCUGGCUCCCCAUGUUUAACAAUGACCUCCAGAAGGAAGGCUUGCAUGGCAGAAUCUAGCACUUCAUCUGUGACACCCGCCUCAUCCAGGCGCAACAGAGGAUUGAGCAUCA
B3: chr1:163112212:163112213:-_ENSG00000143248_ENST00000313961|hu_hu|hu_hu_hu_mus_False|98_98 (ssRNA)
RNA: GGGAGUUCUACAGUCCGACGAUCUUUUAUUAUCAGUAAGCAUGAGUUACAUACUAGGCAAAGUAUUGGAUACAAUAAUCAGGAAACAAACACUAUUGGUCCAGAAUUUAAAACUUUAUGAGCGAAGUGCUGGCACAGGACUUACAACAGAGGAUUGAGCAUCA
B4: chr4:73765705:73765706:+_ENSMUSG00000049122_ENSMUST00000084474|mus_hu|FALSE|FALSE (ssRNA)
RNA: GGGAGUUCUACAGUCCGACGAUCGUAUCUUGUGAGCUCUUCUUUAAUCUUCAAGGGUUCAUGUGGGUAGAAUUUCACUCUAAAGCACAUGGUGUAUGGUGGAUGAGUUUUCAUUUGCUUGAAGAUGGACUUGUUAGGUUCAAGCAACAGAGGAUUGAGCAUCA
B5: chr6:41757443:41757444:+_ENSG00000214736_ENST00000398881|hu_mus|hu_hu_hu_mus_False|8_98 (ssRNA)
RNA: GGGAGUUCUACAGUCCGACGAUCGAACCGUGCAGAGACCAGAGAAUAGCCGACACUGGGGGAUGGGGGGGCAGUGGGGGGGGGUUCAGGCAAGGAGAGGGAGUCAACUUCAGCUGCCACUCAGGUAGCUGCCAUCAGUCACAGCAACAGAGGAUUGAGCAUCA
B6: chr12:48362563:48362564:+_ENSG00000134291_ENST00000256686|hu_hu|hu_hu_hu_mus_False|1_1 (ssRNA)
RNA: GGGAGUUCUACAGUCCGACGAUCUCCGUCAAGCCCUUCGAUAGACCCUUGCGGGGGAAACUGUAAUCACUUUGUAUGGGGAAGGAAAAGAAACGCCAAAAACUUUCCAAAAAGCGGGGGUGGGGUGAGGCGGGAGGUUGGGAACAACAGAGGAUUGAGCAUCA
B7: chr13:85337103:85337104:+_ENSMUSG00000021548_ENSMUST00000022030|mus_mus|FALSE|FALSE (ssRNA)
RNA: GGGAGUUCUACAGUCCGACGAUCAUCGAUGAGGAAGCCUUCAAAUGGUCUGUAUGGAUUGUGGACAAUAAGGUGAAAAUUAAGUUGUUGUAUAAGUAGUAGUUCAUAUUCCAAAAUCUGUUCCAGUGCCCUCUCCUGUCCAAGCAACAGAGGAUUGAGCAUCA
B8: 84973231_84973351_108_3pUTR_ENSMUSG00000010608_ENSMUST00000048155|mouse|control|control (ssRNA)
RNA: GGGAGUUCUACAGUCCGACGAUCGGUACUGUCUUCGCGGCCUCUGGGCGUCAGGUGAUGGAGUGGGGCUCCACCGGUUCGAGGUGUCUGCGCGCCGCCCGACUCUAGAGACUGGUUCCGAAGCGCCUACUCGCCUAGGCCGCACAACAGAGGAUUGAGCAUCA
B9: chr1:60041781:60041782:+_ENSMUSG00000041040_ENSMUST00000036540|mus_hu|mus_mus_mus_hu_False|28_88 (ssRNA)
RNA: GGGAGUUCUACAGUCCGACGAUCAAGUUUACAAUAGUAAAGUAAAUCAAAUUUAGUCAAAUUUUCUUUUAUUUUCCUUCACAAAAGAAAAUCUUUAUAACCCAGUCCAAUCCCAGAACAUAGUGAAAGCUAUAAAUUCUGACUCAACAGAGGAUUGAGCAUCA
B10: chr1:241675328:241675329:-_ENSG00000091483_ENST00000366560|hu_hu|motif|central (ssRNA)
RNA: GGGAGUUCUACAGUCCGACGAUCGCUUUUAUUAACAUGAUCGUUGGGAUGCACAGGUAUCUUGCUGCCAAGUUCACCUCCGGACAUUUCAAUUGCUCUAUUGCUAAUGACUUCAUUUACAUUCAUAUUUGUCUGAGUUCCUGACAACAGAGGAUUGAGCAUCA
B11: chr17:21098601:21098602:+_ENSMUSG00000007564_ENSMUST00000007708|mus_mus|FALSE|FALSE (ssRNA)
RNA: GGGAGUUCUACAGUCCGACGAUCGGCUAAGACCUUGGGGAUGAUAGUGGCAUGGGCCCACUCCUUCCCGAACUUCUCUACUAAUUUCUUAAGGUUGCUGGUGGCAGCCUCACGGAUAGCAUAGACAUGAUCCACUAGCCAGGCCAACAGAGGAUUGAGCAUCA
B12: chr5:24101842:24101843:-_ENSMUSG00000028949_ENSMUST00000030791|mus_mus|FALSE|FALSE (ssRNA)
RNA: GGGAGUUCUACAGUCCGACGAUCCUCCUGGAUGUCCACCCGCUUCCGCAUGAUGGUUUGAUCCAGUUUCCUCUCAAAUGCUAGGAGGUCCAUGUAAGCCUGGGACUCGGGUACCAGCUCCCGAAUCCUUUGAGGGAGGAUUUUCAACAGAGGAUUGAGCAUCA
B13: chr12:111868959:111868960:+_ENSMUSG00000018707_ENSMUST00000018851|mus_mus|FALSE|FALSE (ssRNA)
RNA: GGGAGUUCUACAGUCCGACGAUCCAGAGUGAGCCACUCAUUGAUUUUGGGGUGUUCAGUGAUGGACACUGGAGUUUUAAACAUAACCUCCUCCCCUUCUCGGGAUGAGAUGCCGAGGACCACAGAGUUAUCCUCAUUUAAGAUCAACAGAGGAUUGAGCAUCA
B14: 10421687_10422949_824_3pUTR_ENSMUSG00000022503_ENSMUST00000023146|mouse|control|control (ssRNA)
RNA: GGGAGUUCUACAGUCCGACGAUCGACAAAAAAAGACUGGCCUUUGUCACAGCUCUUGCCUAUGUGUGGAUCCAGCGGCACUUUGCCCAGAAGUGGAAUCCUCAGAUCCUGGCACAUGGCCUCUGCACCCCCAGUCGUGGGAGGCAACAGAGGAUUGAGCAUCA
B15: chr4:76721835:76721836:+_ENSG00000138768_ENST00000264904|hu_mus|hu_hu_hu_mus_True|18_98 (ssRNA)
RNA: GGGAGUUCUACAGUCCGACGAUCGUUUGGCUGGGGUUCUGAGAUGCCUCUGGAAUAUAACUCAUGUUUGCUAAUAAAUCCUAGUUUCUCUAUGAAAUUCUCUUUGCCAAUCCUCUUUCAAUCAGUUUGCUUUAGUUUCUCUUUCAACAGAGGAUUGAGCAUCA
B16: chr3:176767854:176767855:-_ENSG00000177565_ENST00000430069|hu_hu|hu_hu_hu_mus_False|78_98 (ssRNA)
RNA: GGGAGUUCUACAGUCCGACGAUCGACAUCCUUGUUACUUGGAACAUCCUGCCCUCCUUCUCGUAUACAGUGUCUAAGCACGAGCUGCGUAGGGCCACUCGUGCUGUUCUCACUGAGGUUCCAGAUUCUUGCCGUGGAGUCUCCCAACAGAGGAUUGAGCAUCA
B17: chr7:135612270:135612271:-_ENSG00000105887_ENST00000393085|hu_mus|hu_hu_hu_mus_False|98_98 (ssRNA)
RNA: GGGAGUUCUACAGUCCGACGAUCGUUUUUUUCUGAGUAAGUAUUACGUACUUCAGUGGAAAACAAAACUUAACCUUUUAUUAAUGCGUGUUGUACCAAAAGCAGACAUUUUAGCUUCAUUUAUUCAAAAAUAUUAACAUUAAGCAACAGAGGAUUGAGCAUCA
B18: chr2:48026839:48026840:+_ENSG00000116062_ENST00000540021|hu_hu|hu_hu_hu_mus_False|1_28 (ssRNA)
RNA: GGGAGUUCUACAGUCCGACGAUCAUAGUGAGCCACUAGCGUCCUAAAUCUGGAACAGUGGCGGUCAUCCGAAAACUGGCCGAUGAAAAACUUGCCCAGUGAAGUGUCAACAAAGCAAACACCAUACACACGAGUGUGGCCAGACAACAGAGGAUUGAGCAUCA
B19: chr11:115359251:115359252:-_ENSMUSG00000020737_ENSMUST00000021083|mus_hu|FALSE|FALSE (ssRNA)
RNA: GGGAGUUCUACAGUCCGACGAUCUAUUUCUUCUUAAAAACACAGUACUAAGUGUCACAAAGCUUUCCCUCCAAUCUACUACUAGAAAACACUCAUGCCAUGGCCCACAGACCCAAGAGUCAAGGACAGAGAGAAACCUGUUCUCAACAGAGGAUUGAGCAUCA
B20: chr10:131959147:131959148:+_ENSG00000108010_ENST00000331244|hu_hu|FALSE|FALSE (ssRNA)
RNA: GGGAGUUCUACAGUCCGACGAUCCAAUUUCUUCAAGCGAAGGUUGAGAUCUUCUUUAAGAUGUUCAUUAGCGCUGGGUAGGAAGGAGCCACUAGAUGCAUGUCGCUGAACUUUUUUGGUCAACUCUGGGGCAUGUGCACCAUCCAACAGAGGAUUGAGCAUCA
B21: chr8:22473583:22473584:+_ENSG00000158941_ENST00000389279|hu_mus|motif|central (ssRNA)
RNA: GGGAGUUCUACAGUCCGACGAUCAGGUUCAGGAGGAGACACAACUUUUUCUGGAAGGCUCAGCAGCGUCUUAUAAAUUCGGUAGCCAAAAUCCCUCUGCAGCAUCUCUACAAACAGCUCAGCCAGCACCACUACCUCAAAAGACAACAGAGGAUUGAGCAUCA
B22: chr5:24309477:24309478:-_ENSMUSG00000028945_ENSMUST00000030787|mus_mus|FALSE|FALSE (ssRNA)
RNA: GGGAGUUCUACAGUCCGACGAUCGCAGUUUGCUUCCUCAGGUGGAAUAUAUCCCCAGUGUCCGCAGGCUCUGCAGCAGAAUUGUCACAUCACCGAGCACGAAGACUUUCCUUGUGAAGCUGCUCCAUCAAUCUUUUCUGCUUCCAACAGAGGAUUGAGCAUCA

Each binder was assayed against T1, UNK ZnF1-3 (assay: nsRBNS (natural sequence RNA bind-n-seq); RBNS binding buffer (assumed for nsRBNS): 25 mM Tris pH 7.5, 150 mM KCl, 3 mM MgCl2, 0.01% Triton X-100, 500 ug/ml BSA, 20 U/ml SUPERase-In, 4 C; UNK is unkempt and MSI1 is Musashi-1; names of the RNAs are library labels; protein concentration not given here; high values mean tight binding).
B1 showed a binding signal of 0.958 enrichment R. In the case of B2, the binding signal is reported as 0.802 enrichment R. Work on B3 yielded a binding signal of 1.65 enrichment R. For B4, the binding signal was 0.655 enrichment R. For B5, the binding signal was 2.05 enrichment R. B6 gave a binding signal of 2.33 enrichment R. B7 showed a binding signal of 2.26 enrichment R. B8 showed a binding signal of 0.541 enrichment R. For B9, the binding signal was 0.427 enrichment R. Work on B10 yielded a binding signal of 0.478 enrichment R. In the case of B11, the binding signal is reported as 1.03 enrichment R. B12 showed a binding signal of 0.564 enrichment R. Binder B13 has a binding signal of 0.847 enrichment R. For B14, the binding signal was 1.06 enrichment R. B15 showed a binding signal of 0.489 enrichment R. With B16 the binding signal was 0.495 enrichment R. B17 showed a binding signal of 1.16 enrichment R. Binder B18 has a binding signal of 1.24 enrichment R. With B19 the binding signal was 1.29 enrichment R. Work on B20 yielded a binding signal of 1.18 enrichment R. For B21, the binding signal was 1.82 enrichment R. Binder B22 has a binding signal of 0.883 enrichment R.
